Assay results: publication PMC11995724, “Antibiotic target discovery by integrated phenotypic and activity-based profiling of electrophilic fragments” (Cell chemical biology, 2025)
Out of some 3,200 compounds screened, about 110 (3.4%) showed an effect of 50% or more. Some of the results follow.

tested on: T1, V. cholerae SAD30; set-up: species or system S. aureus MSSA476 (TSB) or V. cholerae SAD30 (LB); 384-well bacterial growth screen at 25 uM, OD600 relative to DMSO control; settings: relative growth, OD600, LB; 25 µM; inhibitor
T1 construct: SAD30

Compound | % of control remaining [%]
CC(Cl)C(=O)N1CCCCC1C1CCCN(C(=O)C(F)(F)F)C1 (stereo not shown) [6-F16, 2-chloro-1-[1'-(2,2,2-trifluoroacetyl)-[2,3'-bipiperidin]-1-yl]propan-1-one] | 87.8188
O=C(CCl)Nc1cc(S(=O)(=O)N2CCCCC2)ccc1Cl [4-F09, 2-chloro-N-[2-chloro-5-(piperidine-1-sulfonyl)phenyl]acetamide] | 100.755
O=C(CCl)C1CC12CCCCC2 (stereo not shown) [10-A19, 2-chloro-1-{spiro[2.5]octan-1-yl}ethan-1-one] | 104.111
C=CC(=O)Nc1ccc(C(N)=O)cc1C [1-P06, 3-methyl-4-(prop-2-enamido)benzamide] | 113.592
O=C(CCl)N1CCN(C(=O)CC(F)(F)F)CC1 [5-A08, 1-[4-(2-chloroacetyl)piperazin-1-yl]-3,3,3-trifluoropropan-1-one] | 104.403
Cc1ccc(C=C(C#N)C(=O)NCCc2ccccc2)o1 [8-H12, 2-cyano-3-(5-methylfuran-2-yl)-N-(2-phenylethyl)prop-2-enamide] | 59.7553
CN(C(=O)CCl)C(c1ccccc1)c1ccccc1 [5-H06, 2-chloro-N-(diphenylmethyl)-N-methylacetamide] | 97.5097
CC(Cl)C(=O)Nc1ccccc1-c1ccccc1 (stereo not shown) [4-G14, N-{[1,1'-biphenyl]-2-yl}-2-chloropropanamide] | 91.611
C=CC(=O)NCCc1cscn1 [2-G08, N-[2-(1,3-thiazol-4-yl)ethyl]prop-2-enamide] | 90.0415
c1nc(N2CCSSCC2)c2c3c(sc2n1)CCCC3 [10-M22, 3-(1,2,5-dithiazepan-5-yl)-8-thia-4,6-diazatricyclo[7.4.0.0,2,7]trideca-1(9),2,4,6-tetraene] | 79.3298
CCN(CC)S(=O)(=O)c1ccc(Cl)c(NC(=O)C(C)Cl)c1 (stereo not shown) [6-C20, 2-chloro-N-[2-chloro-5-(diethylsulfamoyl)phenyl]propanamide] | 83.5719
Cc1ccc(-n2c(C)cc(C=C(C#N)C(=O)N3CCCCC3)c2C)cc1 [9-O21, 3-[2,5-dimethyl-1-(4-methylphenyl)-1H-pyrrol-3-yl]-2-(piperidine-1-carbonyl)prop-2-enenitrile] | 81.1013
NC(=O)CSc1ccccc1NC(=O)CCl [4-A15, 2-{[2-(2-chloroacetamido)phenyl]sulfanyl}acetamide] | 103.343
O=C(CCl)NCCc1ccn(C2CCCC2)n1 [7-L20, 2-chloro-N-[2-(1-cyclopentyl-1H-pyrazol-3-yl)ethyl]acetamide] | 84.1897
N#CC(=Cc1ccc([N+](=O)[O-])cc1)C(=O)Nc1cccc2ncccc12 [9-K21, 2-cyano-3-(4-nitrophenyl)-N-(quinolin-5-yl)prop-2-enamide] | 92.93
C=CC(=O)N1CCN(C(C)c2nc(C)no2)CC1 (stereo not shown) [3-M11, 1-{4-[1-(3-methyl-1,2,4-oxadiazol-5-yl)ethyl]piperazin-1-yl}prop-2-en-1-one] | 96.1478
C=CC(=O)Nc1cnn(C2CCCC2)c1 [3-O21, N-(1-cyclopentyl-1H-pyrazol-4-yl)prop-2-enamide] | 106.734
CCCn1c(C)cc(C=C(C#N)C(=O)Nc2ccccc2)c1C [8-H05, 2-cyano-3-(2,5-dimethyl-1-propyl-1H-pyrrol-3-yl)-N-phenylprop-2-enamide] | 82.3249
N#CC(=Cc1cccc(F)c1F)C(N)=O [9-A03, 2-cyano-3-(2,3-difluorophenyl)prop-2-enamide] | 97.1448
CC(Cl)C(=O)NC(CC1CCCCC1)c1ncccn1 (stereo not shown) [7-H13, 2-chloro-N-[2-cyclohexyl-1-(pyrimidin-2-yl)ethyl]propanamide] | 75.3345
CCn1cc(C2CN(C(=O)C(C)Cl)CCO2)cn1 (stereo not shown) [7-G08, 2-chloro-1-[2-(1-ethyl-1H-pyrazol-4-yl)morpholin-4-yl]propan-1-one] | 80.6212
C=CC(=O)NC(c1ccc(F)cc1)c1nccn1C (stereo not shown) [2-N09, N-[(4-fluorophenyl)(1-methyl-1H-imidazol-2-yl)methyl]prop-2-enamide] | 90.1959
COc1ccc(CN2CCN(C(=O)CCl)CC2)cc1.Cl [5-A15, 2-chloro-1-{4-[(4-methoxyphenyl)methyl]piperazin-1-yl}ethan-1-one hydrochloride] | 102.721

Compound | % of control remaining [%]
C=CC(=O)N1CCC(C(=O)N[C@H]2CCO[C@H](c3ccccn3)C2)CC1 (racemic) [2-G15, rac-1-(prop-2-enoyl)-N-[(2R,4R)-2-(pyridin-2-yl)oxan-4-yl]piperidine-4-carboxamide] | 87.88
Cn1ccnc1C(=O)CCl [10-C15, 2-chloro-1-(1-methyl-1H-imidazol-2-yl)ethan-1-one] | 101.461
CC1=C(c2ccco2)CN(C(=O)C(C)Cl)CC1 (stereo not shown) [6-D15, 2-chloro-1-[5-(furan-2-yl)-4-methyl-1,2,3,6-tetrahydropyridin-1-yl]propan-1-one] | 84.937
C=CC(=O)NCCCc1conc1C [2-N13, N-[3-(3-methyl-1,2-oxazol-4-yl)propyl]prop-2-enamide] | 87.88
C=CC(=O)NCc1cccc(C(C)(F)F)c1 [3-O22, N-{[3-(1,1-difluoroethyl)phenyl]methyl}prop-2-enamide] | 103.911
CC(Cl)C(=O)Nc1ccc2c(c1)ncn2-c1ccccc1 (stereo not shown) [6-N13, 2-chloro-N-(1-phenyl-1H-1,3-benzodiazol-5-yl)propanamide] | 85.2403
O=C(CCl)N1CCN(C2CCCN(C3CCOCC3)C2=O)CC1 (stereo not shown) [5-E18, 3-[4-(2-chloroacetyl)piperazin-1-yl]-1-(oxan-4-yl)piperidin-2-one] | 92.9705
C=CC(=O)Nc1cccc(C(=O)C(F)F)c1 [1-G14, N-[3-(2,2-difluoroacetyl)phenyl]prop-2-enamide] | 91.1809
COc1ccc(Cl)c2c1CCCC2N(C)C(=O)C(C)Cl (stereo not shown) [7-P09, 2-chloro-N-(8-chloro-5-methoxy-1,2,3,4-tetrahydronaphthalen-1-yl)-N-methylpropanamide] | 63.4396
C=CC(=O)NC1CN(S(=O)(=O)c2ccc3c(c2)OCCO3)C1 [2-E11, N-[1-(2,3-dihydro-1,4-benzodioxine-6-sulfonyl)azetidin-3-yl]prop-2-enamide] | 95.7541
C=CC(=O)NC1(c2ncon2)CC1 [1-A05, N-[1-(1,2,4-oxadiazol-3-yl)cyclopropyl]prop-2-enamide] | 89.0882
C=CC(=O)N(C)Cc1noc(C2CC2)n1 [2-N17, N-[(5-cyclopropyl-1,2,4-oxadiazol-3-yl)methyl]-N-methylprop-2-enamide] | 90.9679
C=CC(=O)Nc1ccc(C(C)Sc2ccccc2)cc1 (stereo not shown) [1-C21, N-{4-[1-(phenylsulfanyl)ethyl]phenyl}prop-2-enamide] | 65.4709
CCn1nc(C)c(C(=O)CCl)n1 [10-P08, 2-chloro-1-(2-ethyl-5-methyl-2H-1,2,3-triazol-4-yl)ethan-1-one] | 40.2104
COC(=O)C1(NC(=O)CCl)CC1 [6-I06, methyl 1-(2-chloroacetamido)cyclopropane-1-carboxylate] | 92.9756
C=CC(=O)N(C)CC(=O)N1CCC2(CC1)CC2c1nnc(C(C)C)o1 (stereo not shown) [2-N22, N-methyl-N-(2-oxo-2-{1-[5-(propan-2-yl)-1,3,4-oxadiazol-2-yl]-6-azaspiro[2.5]octan-6-yl}ethyl)prop-2-enamide] | 92.6662
O=C(CCl)N1CC2CCC(C1)O2 [6-M20, 2-chloro-1-{8-oxa-3-azabicyclo[3.2.1]octan-3-yl}ethan-1-one] | 95.8574
C=CC(=O)NC(C)c1ccc(-n2ccnn2)cc1 (stereo not shown) [3-B13, N-{1-[4-(1H-1,2,3-triazol-1-yl)phenyl]ethyl}prop-2-enamide] | 104.793
N#CC(=Cc1csc(C2CC2)n1)C(=O)Nc1ccccc1C(=O)O [9-C16, 2-[2-cyano-3-(2-cyclopropyl-1,3-thiazol-4-yl)prop-2-enamido]benzoic acid] | 81.6451
Cc1ccc(C=C(C#N)C(=O)NC2CCCC2)cc1C [8-E12, 2-cyano-N-cyclopentyl-3-(3,4-dimethylphenyl)prop-2-enamide] | 70.6322
C=CC(=O)NCCN1C(=O)COc2ccccc21 [2-P07, N-[2-(3-oxo-3,4-dihydro-2H-1,4-benzoxazin-4-yl)ethyl]prop-2-enamide] | 101.004
Cc1ccc(NC(=O)C(C#N)=Cc2ccc(OC(F)F)cc2)c(C)c1 [9-G19, 2-cyano-3-[4-(difluoromethoxy)phenyl]-N-(2,4-dimethylphenyl)prop-2-enamide] | 75.2549
CN1C(=C(C#N)C(=O)CCl)N(C)c2ccccc21 [10-P18, 4-chloro-2-(1,3-dimethyl-2,3-dihydro-1H-1,3-benzodiazol-2-ylidene)-3-oxobutanenitrile] | 91.7982
